# In the supplement of paper PMC8728848:
# The list shows a part of the results.
# B1: NcCVNHO (Neurospora crassa), Q7S6U4 (protein)
# chain: MSFHVTAEDARIEVRDNRTILFARLRREDGEWNDASYELDQIIGNNDGHFQWGGQNFTETAEDIRFHPKEGAAEQPILRARLRDCNGEFHDRDVNLTEIVENVNGEFQAKF
# How the values were obtained:
# Experiment in all cases: glycan array binding signal (z-score within array); higher = stronger binding
# Conditions in all cases: glycan notation: IUPAC condensed, linker removed
# [1] = molecular target: Gal(b1-3)GalNAc
# Summary of the method: (§1)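 Glycan array binding is given as a within-array Z-score, which can be read as non-binding when negative. The arrays, 3228 of them, came from the Consortium for Functional Glycomics database and were retained only where the protein sequence was available. Z-scores were averaged across arrays of the same protein sequence at different concentrations or buffers and across linkers.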
# [2] = molecular target: Gal(b1-3)GalNAc(b1-3)Gal(a1-4)Gal(b1-4)Glc
# Summary of the method: as §1
# [3] = molecular target: Gal(b1-3)GalNAc(b1-3)Gal(b1-4)Glc
# Summary of the method: as §1
# [4] = molecular target: Gal(b1-3)GalNAc(b1-3)Gal(b1-4)GlcNAc
# Summary of the method: as §1
# [5] = molecular target: Gal(b1-3)GalNAc(b1-4)Gal(b1-4)Glc
# Summary of the method: as §1
# [6] = molecular target: Gal(b1-3)GalNAc(b1-4)[Neu5Ac(a2-3)]Gal(b1-4)Glc
# Summary of the method: as §1
# [7] = molecular target: Gal(b1-3)GlcNAc
# Summary of the method: as §1
# [8] = molecular target: Gal(b1-3)GlcNAc(b1-2)Man(a1-3)[Gal(b1-3)GlcNAc(b1-2)Man(a1-6)]Man(b1-4)GlcNAc(b1-4)GlcNAc
# Summary of the method: as §1
# [9] = molecular target: Gal(b1-3)GlcNAc(b1-3)Gal(b1-3)GlcNAc
# Summary of the method: as §1
# [10] = molecular target: Gal(b1-3)GlcNAc(b1-3)Gal(b1-4)Glc
# Summary of the method: as §1
# [11] = molecular target: Gal(b1-3)GlcNAc(b1-3)Gal(b1-4)GlcNAc
# Summary of the method: as §1
# [12] = molecular target: Gal(b1-3)[Fuc(a1-4)]GlcNAc
# Summary of the method: as §1
# [13] = molecular target: Gal(b1-3)[Fuc(a1-4)]GlcNAc(b1-3)Gal(b1-3)[Fuc(a1-4)]GlcNAc
# Summary of the method: as §1
# [14] = molecular target: Gal(b1-3)[Fuc(a1-4)]GlcNAc(b1-3)Gal(b1-4)GlcNAc
# Summary of the method: as §1
# [15] = molecular target: Gal(b1-3)[Fuc(a1-4)]GlcNAc(b1-3)Gal(b1-4)[Fuc(a1-3)]GlcNAc
# Summary of the method: as §1
# [16] = molecular target: Gal(b1-3)[GlcNAc(b1-6)]GalNAc
# Summary of the method: as §1
# [17] = molecular target: Gal(b1-3)[GlcNAc(b1-6)]GlcNAc
# Summary of the method: as §1
# [18] = molecular target: Gal(b1-3)[Neu5Ac(a2-6)]GalNAc
# Summary of the method: as §1
# [19] = molecular target: Gal(b1-3)[Neu5Ac(a2-6)]GlcNAc
# Summary of the method: as §1
# [20] = molecular target: Gal(b1-3)[Neu5Ac(a2-6)]GlcNAc(a1-4)Gal(b1-4)Glc
# Summary of the method: as §1
# [21] = molecular target: Gal(b1-3)[Neu5Ac(a2-6)]GlcNAc(b1-6)Gal(b1-4)Glc
# Summary of the method: as §1
# [22] = molecular target: Gal(b1-3)[Neu5Ac(b2-6)]GalNAc
# Summary of the method: as §1
# [23] = molecular target: Gal(b1-3)[Neu5Ac(b2-6)]GlcNAc
# Summary of the method: as §1
# [24] = molecular target: Gal(b1-4)GalNAc(a1-3)[Fuc(a1-2)]Gal(b1-4)GlcNAc
# Summary of the method: as §1
# [25] = molecular target: Gal(b1-4)GalNAc(b1-3)[Fuc(a1-2)]Gal(b1-4)GlcNAc
# Summary of the method: as §1
# [26] = molecular target: Gal(b1-4)Glc
# Summary of the method: as §1
# [27] = molecular target: Gal(b1-4)Glc6S
# Summary of the method: as §1
# [28] = molecular target: Gal(b1-4)GlcNAc
# Summary of the method: as §1
# [29] = molecular target: Gal(b1-4)GlcNAc(a1-6)Gal(b1-4)GlcNAc
# Summary of the method: as §1
# [30] = molecular target: Gal(b1-4)GlcNAc(b1-2)Man(a1-3)[Gal(b1-4)GlcNAc(b1-2)Man(a1-6)]Man(b1-4)GlcNAc(b1-4)GlcNAc
# Summary of the method: as §1
# [31] = molecular target: Gal(b1-4)GlcNAc(b1-3)Gal(b1-3)GlcNAc
# Summary of the method: as §1
# [32] = molecular target: Gal(b1-4)GlcNAc(b1-3)Gal(b1-4)Glc
# Summary of the method: as §1
# [33] = molecular target: Gal(b1-4)GlcNAc(b1-3)Gal(b1-4)GlcNAc
# Summary of the method: as §1
# [34] = molecular target: Gal(b1-4)GlcNAc(b1-3)Gal(b1-4)GlcNAc(b1-3)Gal(b1-4)GlcNAc
# Summary of the method: as §1
# [35] = molecular target: Gal(b1-4)GlcNAc(b1-3)Gal(b1-4)[Fuc(a1-3)]GlcNAc(b1-3)Gal(b1-4)[Fuc(a1-3)]GlcNAc
# Summary of the method: as §1
# [36] = molecular target: Gal(b1-4)GlcNAc(b1-3)GalNAc
# Summary of the method: as §1
# [37] = molecular target: Gal(b1-4)GlcNAc(b1-3)[Gal(b1-4)GlcNAc(b1-6)]Gal(b1-4)GlcNAc
# Summary of the method: as §1
# [38] = molecular target: Gal(b1-4)GlcNAc(b1-3)[Gal(b1-4)GlcNAc(b1-6)]GalNAc
# Summary of the method: as §1
# [39] = molecular target: Gal(b1-4)GlcNAc(b1-3)[GlcNAc(b1-6)]Gal(b1-4)GlcNAc
# Summary of the method: as §1
# [40] = molecular target: Gal(b1-4)GlcNAc(b1-6)Gal(b1-4)GlcNAc
# Summary of the method: as §1
# [41] = molecular target: Gal(b1-4)GlcNAc(b1-6)Gal(b1-4)GlcNAc(b1-6)GalNAc
# Summary of the method: as §1
# [42] = molecular target: Gal(b1-4)GlcNAc(b1-6)GalNAc
# Summary of the method: as §1
# [43] = molecular target: Gal(b1-4)GlcNAc(b1-6)[Gal(b1-3)]GalNAc
# Summary of the method: as §1
# [44] = molecular target: Gal(b1-4)GlcNAc(b1-6)[Gal(b1-3)]GlcNAc
# Summary of the method: as §1
# [45] = molecular target: Gal3S(b1-3)GalNAc
# Summary of the method: as §1
# [46] = molecular target: Gal3S(b1-3)GlcNAc
# Summary of the method: as §1
# [47] = molecular target: Gal3S(b1-3)[Fuc(a1-4)]GlcNAc
# Summary of the method: as §1
# [48] = molecular target: Gal3S(b1-4)Glc
# Summary of the method: as §1
# [49] = molecular target: Gal3S(b1-4)Glc6S
# Summary of the method: as §1
# [50] = molecular target: Gal3S(b1-4)GlcNAc
# Summary of the method: as §1
# [51] = molecular target: Gal3S(b1-4)GlcNAc6S
# Summary of the method: as §1
# [52] = molecular target: Gal3S(b1-4)[Fuc(a1-3)]Glc
# Summary of the method: as §1
# [53] = molecular target: Gal3S4S(b1-4)GlcNAc
# Summary of the method: as §1
# [54] = molecular target: Gal3S6S(b1-4)GlcNAc
# Summary of the method: as §1
# [55] = molecular target: Gal3S6S(b1-4)GlcNAc6S
# Summary of the method: as §1
# [56] = molecular target: Gal4S(b1-4)GlcNAc
# Summary of the method: as §1
# [57] = molecular target: Gal4S6S(b1-4)GlcNAc
# Summary of the method: as §1
# [58] = molecular target: Gal6S(b1-4)Glc
# Summary of the method: as §1
# [59] = molecular target: Gal6S(b1-4)Glc6S
# Summary of the method: as §1
# [60] = molecular target: Gal6S(b1-4)GlcNAc
# Summary of the method: as §1
# [61] = molecular target: Gal6S(b1-4)GlcNAc6S
# Summary of the method: as §1
# [62] = molecular target: GalNAc(a1-3)Gal
# Summary of the method: as §1
# [63] = molecular target: GalNAc(a1-3)GalNAc
# Summary of the method: as §1
# [64] = molecular target: GalNAc(b1-3)Gal
# Summary of the method: as §1
# [65] = molecular target: GalNAc(b1-3)Gal(a1-4)Gal(b1-4)GlcNAc
# Summary of the method: as §1
# [66] = molecular target: GalNAc(b1-3)GalNAc
# Summary of the method: as §1
# [67] = molecular target: GalNAc(b1-4)GlcNAc
# Summary of the method: as §1
# [68] = molecular target: Glc(a1-4)Glc
# Summary of the method: as §1
# [69] = molecular target: Glc(a1-6)Glc(a1-6)Glc
# Summary of the method: as §1
# [70] = molecular target: Glc(b1-4)Glc
# Summary of the method: as §1
# [71] = molecular target: Glc(b1-6)Glc
# Summary of the method: as §1
# [72] = molecular target: GlcA(b1-3)Gal
# Summary of the method: as §1
# [73] = molecular target: GlcA(b1-3)GlcNAc
# Summary of the method: as §1
# [74] = molecular target: GlcA(b1-6)Gal
# Summary of the method: as §1
# [75] = molecular target: GlcNAc(a1-3)Gal(b1-4)GlcNAc
# Summary of the method: as §1
binder,measurement,setting,value
B1,glycan array binding signal (z-score),[1],-0.141
same,glycan array binding signal (z-score),[2],-0.054
same,glycan array binding signal (z-score),[3],-0.165
same,glycan array binding signal (z-score),[4],-0.108
same,glycan array binding signal (z-score),[5],-0.237
same,glycan array binding signal (z-score),[6],-0.239
same,glycan array binding signal (z-score),[7],-0.26
same,glycan array binding signal (z-score),[8],-0.174
same,glycan array binding signal (z-score),[9],-0.168
same,glycan array binding signal (z-score),[10],4.71
same,glycan array binding signal (z-score),[11],-0.264
same,glycan array binding signal (z-score),[12],-0.235
same,glycan array binding signal (z-score),[13],-0.154
same,glycan array binding signal (z-score),[14],-0.219
same,glycan array binding signal (z-score),[15],-0.231
same,glycan array binding signal (z-score),[16],-0.196
same,glycan array binding signal (z-score),[17],-0.122
same,glycan array binding signal (z-score),[18],-0.236
same,glycan array binding signal (z-score),[19],-0.167
same,glycan array binding signal (z-score),[20],-0.172
same,glycan array binding signal (z-score),[21],4.11
same,glycan array binding signal (z-score),[22],-0.264
same,glycan array binding signal (z-score),[23],-0.106
same,glycan array binding signal (z-score),[24],-0.227
same,glycan array binding signal (z-score),[25],-0.191
same,glycan array binding signal (z-score),[26],-0.208
same,glycan array binding signal (z-score),[27],-0.213
same,glycan array binding signal (z-score),[28],-0.209
same,glycan array binding signal (z-score),[29],-0.189
same,glycan array binding signal (z-score),[30],-0.192
same,glycan array binding signal (z-score),[31],-0.157
same,glycan array binding signal (z-score),[32],1.89
same,glycan array binding signal (z-score),[33],-0.233
same,glycan array binding signal (z-score),[34],-0.244
same,glycan array binding signal (z-score),[35],-0.185
same,glycan array binding signal (z-score),[36],-0.216
same,glycan array binding signal (z-score),[37],-0.185
same,glycan array binding signal (z-score),[38],-0.246
same,glycan array binding signal (z-score),[39],-0.193
same,glycan array binding signal (z-score),[40],-0.195
same,glycan array binding signal (z-score),[41],-0.156
same,glycan array binding signal (z-score),[42],-0.228
same,glycan array binding signal (z-score),[43],-0.196
same,glycan array binding signal (z-score),[44],-0.141
same,glycan array binding signal (z-score),[45],-0.239
same,glycan array binding signal (z-score),[46],-0.229
same,glycan array binding signal (z-score),[47],-0.201
same,glycan array binding signal (z-score),[48],-0.183
same,glycan array binding signal (z-score),[49],-0.12
same,glycan array binding signal (z-score),[50],-0.216
same,glycan array binding signal (z-score),[51],-0.214
same,glycan array binding signal (z-score),[52],-0.193
same,glycan array binding signal (z-score),[53],-0.178
same,glycan array binding signal (z-score),[54],-0.23
same,glycan array binding signal (z-score),[55],-0.227
same,glycan array binding signal (z-score),[56],-0.182
same,glycan array binding signal (z-score),[57],-0.207
same,glycan array binding signal (z-score),[58],-0.235
same,glycan array binding signal (z-score),[59],-0.209
same,glycan array binding signal (z-score),[60],-0.213
same,glycan array binding signal (z-score),[61],-0.172
same,glycan array binding signal (z-score),[62],-0.204
same,glycan array binding signal (z-score),[63],-0.227
same,glycan array binding signal (z-score),[64],-0.185
same,glycan array binding signal (z-score),[65],1.19
same,glycan array binding signal (z-score),[66],-0.25
same,glycan array binding signal (z-score),[67],-0.226
same,glycan array binding signal (z-score),[68],-0.185
same,glycan array binding signal (z-score),[69],2.37
same,glycan array binding signal (z-score),[70],1.17
same,glycan array binding signal (z-score),[71],3.02
same,glycan array binding signal (z-score),[72],-0.235
same,glycan array binding signal (z-score),[73],-0.187
same,glycan array binding signal (z-score),[74],-0.222
same,glycan array binding signal (z-score),[75],-0.213
